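Five compound concentrations were applied to cells in 96-well plates for 48 hours; endpoints were derived by simple linear interpolation of the resulting dose-response curve. TGI marks complete inhibition of growth.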 Some entries of the source have several records that differ or are many. The list is limited to them. The source may hold further records. Records of one sample usually come from different ranges of test concentrations, which the source does not state; some values may only mark the edge of a range.
How the values were obtained:
Assay in all cases: inhibition of tumour cell growth, NCI panel, 48 h
[1] = test system: HCT-15 colon
[2] = test system: HL-60(TB) leukemia
[3] = test system: HT29 colon
[4] = test system: CAKI-1 renal
[5] = test system: EKVX NSCLC
[6] = test system: OVCAR-8 ovarian
[7] = test system: NCI-H23 lung
[8] = test system: SNB-19 CNS
[9] = test system: SW-620 colon
[10] = test system: A549 NSCLC
[11] = test system: OVCAR-5 ovarian
[12] = test system: HOP-62 NSCLC
[13] = test system: MCF7 breast
[14] = test system: SK-MEL-28 melanoma

In the case of `C[C@]12CC[C@@H]3c4ccc(OC(=O)N(CCCl)CCCl)cc4CC[C@H]3[C@@H]1CC[C@@H]2O`, the TGI [1] was 12.3 µM and 335 nM, the TGI [2] was 3.47 µM and 251 nM and the TGI [3] was 10.2 µM and 53.6 nM. The TGI [4] was 12.9 µM and 371 nM, the TGI [5] was > 62.5 µM and 3.47 µM and the TGI [6] was 22.5 µM and 180 nM. For the same compound, the TGI [7] was 12.4 µM and 251 nM, the TGI [8] was 37.3 µM and 3.36 µM and the TGI [9] was 16.6 µM and 1.38 µM. The TGI [10] was 16.6 µM and 269 nM, the TGI [11] was 39.4 µM and 2.81 µM and the TGI [12] was 13 µM and 406 nM. For the same compound, the TGI [13] was 30.5 µM and 265 nM and the TGI [14] was 18.8 µM and 259 nM.

From PubChem BioAssay (NCI)
